This is one part of the list.

The assay concerns the target T1, OsWOX13 (Oryza sativa, UniProt Q5QMM3 1-267).
T1 sequence: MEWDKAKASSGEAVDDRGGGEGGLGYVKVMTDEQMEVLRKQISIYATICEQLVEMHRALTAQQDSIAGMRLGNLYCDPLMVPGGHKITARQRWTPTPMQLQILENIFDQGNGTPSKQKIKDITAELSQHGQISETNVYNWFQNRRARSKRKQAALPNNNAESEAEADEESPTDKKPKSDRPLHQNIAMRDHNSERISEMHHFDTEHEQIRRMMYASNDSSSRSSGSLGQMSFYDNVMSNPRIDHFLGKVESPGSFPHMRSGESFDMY
The assay can be described thus: protein-binding microarray (RPBM); PBS, 2% BSA, 51.3 ng/ul salmon testes DNA, 50 uM zinc acetate, 200 nM TF, 25 C, 1 h; high values mean tight binding. The conditions noted are these: protein: recombinant; tags: N-terminal polyhistidine and DsRed monomer fusion (pET32a); label: CyDye5-dUTP incorporated in the synthesized complementary strand; 3' TTTTT single-stranded linker to array surface; dsDNA, one strand shown. In a few lines:
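The binding signal is fluorescence intensity per array feature (arbitrary units). Readings came from an Axon 4000B scanner after a washed, 2% BSA-blocked, double-stranded custom Agilent array had been incubated for 1 h at 25 °C with 200 nM protein and 50 µM zinc acetate. The protein was a Ni–NTA-purified transcription factor fused N-terminally to polyhistidine and DsRed, expressed in E. coli BL21-CodonPlus.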
As for “AGTGTCTAAATTGGTAATCAAACTCCAACACTATTTCATACGGAGTCACCTAGTGCAG”, the binding signal is 20300 fluorescence intensity (a.u.). “CACTTTGATTTTACACACATTGTCAAATATCCTACATAAACGGAGTCACCTAGTGCAG”: the binding signal was 5030 fluorescence intensity (a.u.). The figure for “TTTCAATTTTAGTCAAACTTTCAATTTTAACGTGAAACTACGGAGTCACCTAGTGCAG” is 3450 fluorescence intensity (a.u.). The figure for “TAGTAGATGGAGAATGTTTTAATTTATACTGAAACACGTTCGGAGTCACCTAGTGCAG” is 3910 fluorescence intensity (a.u.); for “CATTAACGGCTAGAAAATTGGTGGATGTGTATATCTGGATCGGAGTCACCTAGTGCAG” it is 5050 fluorescence intensity (a.u.); for “TTACGGCTAATTATTCTTTCAGTGGTAGACGACGTACCCCCGGAGTCACCTAGTGCAG” it is 8580 fluorescence intensity (a.u.).

For the sequence “AGTTCAGATTTGACATATACAGATTCTAGACATTACCAGTCGGAGTCACCTAGTGCAG”, the binding signal was 7040 fluorescence intensity (a.u.). Consider “GGGATTAAATTGGGATCCTTGGCACAACTTAGACTCTCACCGGAGTCACCTAGTGCAG”, for which the binding signal is 23800 fluorescence intensity (a.u.). In the case of “TGTGGTTTAATGATTTATAAATTTAAAATATGTAGGTTTTCGGAGTCACCTAGTGCAG” it was 12000 fluorescence intensity (a.u.); in that of “AATGATTGCCCTTTTAGTGAACTCCAAATTGGGCGAAGTGCGGAGTCACCTAGTGCAG”, 49700 fluorescence intensity (a.u.); in that of “AATTAATTTGTCATTAGTAAATGTTTACTGTAGCACCACACGGAGTCACCTAGTGCAG”, 42000 fluorescence intensity (a.u.). “CGTGTCAAATCTAAAATTTAAATTCGTATAAATTGTTCCACGGAGTCACCTAGTGCAG”: the binding signal is 6860 fluorescence intensity (a.u.). The figure for “GAATGATTGTGGATGATGAAATAAATACTGCTCTTGTCAGCGGAGTCACCTAGTGCAG” is 33400 fluorescence intensity (a.u.); for “CAGCCTTGACACAATTTGTAACTTTATTCCTTGAGTTATGCGGAGTCACCTAGTGCAG” it is 5290 fluorescence intensity (a.u.); for “ACAACGAATTTAGACAGATCTTTATCCAGATTTGTTAGGACGGAGTCACCTAGTGCAG” it is 5910 fluorescence intensity (a.u.). In the case of “TTGGCGATTGATTGGGGAAAGGAAACTTTGCTAGGTCAATCGGAGTCACCTAGTGCAG” it was 53500 fluorescence intensity (a.u.); in that of “ACTTTCCATCACATCACATCACATTCAAAACTTTTCTACTCGGAGTCACCTAGTGCAG”, 4460 fluorescence intensity (a.u.). Turning to “ATTCACTTCCACAGATTGACGAGAGGAGCAAGCATGACCGCGGAGTCACCTAGTGCAG”, the binding signal was 12900 fluorescence intensity (a.u.). With “TTTGAATTACATATAATTGGTGTAAGCTCCAAGGCTTGAACGGAGTCACCTAGTGCAG”, the binding signal was 20800 fluorescence intensity (a.u.). In the case of “GTTGATGCGGATTGTAATGAATTTGCCAAGATATCGAGAACGGAGTCACCTAGTGCAG” it was 3420 fluorescence intensity (a.u.); in that of “CATTAACATATTTATAAATTTGTGTAATGCTAGAAAATCTCGGAGTCACCTAGTGCAG”, 11200 fluorescence intensity (a.u.). Consider “CATATTACAATTTGATTAGTTTGTGCTAAGTTAATGAAAACGGAGTCACCTAGTGCAG”, for which the binding signal was 7080 fluorescence intensity (a.u.). With “TGAAAATAATAATAATTTGATAACATGTTTTCTTCCAAGTCGGAGTCACCTAGTGCAG”, the binding signal was 7230 fluorescence intensity (a.u.).

(Values after paper PMC7819943, “Rice protein-binding microarrays: a tool to detect cis-acting elements near promoter regions in rice”.)
